This is one part of the list.
System: T1, C. trachomatis L2/434/Bu expressing GFP (CTL2-GFP)
T1 construct: L2/434/Bu GFP intracellular growth in HeLa cells
Set-up: species or system HeLa; C. trachomatis total inclusion area by high-content imaging, normalised to DMSO
Conditions: total inclusion area; 28.5 h, 10 µM; inhibitor
Method in brief: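 After bulk GFP and resorufin fluorescence reads, cells were fixed, stained with Hoechst and imaged by high-content microscopy. Inclusion area and number (GFP) stood in for chlamydial growth, nuclei count (Hoechst) for host cell viability. MICs were derived as for the bulk readout.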

| SMILES | % of control remaining |
| --- | --- |
| Cc1ccc(-c2nnc3s/c(=C\c4ccc([N+](=O)[O-])cc4)c(=O)n23)cc1 [CBK264882] | 100.345 |
| O=C(CCCOc1ccccc1)Nc1cccc(N2CCNCC2)c1 [CBK028290T] | 98.7993 |
| Cc1cc(NC(=O)C2CCN(c3ncccc3C#N)CC2)no1 [CBK305689] | 60.7315 |
| CS(=O)(=O)N(Cc1ccc(Cl)cc1)c1ccc(C(=O)Nc2ccccc2C(F)(F)F)cc1 [CBK263988] | 116.679 |
| CCOc1ccc(OCC)c2c1n(C)c(SC)[n+]2C [CBK005720G] | 2.855 |
| Cc1nc(C)c(-c2cnc(NS(=O)(=O)c3ccc(Cl)cc3)nc2)s1 [CBK005935] | 104.98 |
| Cc1cc(C(=O)NC2CCCc3c2cnn3-c2ccc(F)cc2)on1 (stereo not drawn) [CBK282310] | 64.3787 |
| CN1C(=O)COc2ccccc2C/C=C/C[C@@H]2[C@H]1CCCN2S(=O)(=O)c1cccnc1 [CBK292067] | 104.613 |
| Cc1ccc(NC(=O)OCC(F)(F)C(F)F)cc1Cl [CBK026548] | 33.1989 |
| Cc1cc(C(=O)Nc2c(C)noc2C)n[nH]1 [CBK200395] | 95.0966 |
| COC(=O)c1sc2[nH]c(CN(C)Cc3ccco3)nc(=O)c2c1C [CBK306047] | 39.5552 |
| Cc1ccc(S(=O)(=O)N2C[C@H]3C[C@H](NC(=O)C(C)C)[C@H]3C2)cc1 [CBK285317] | 90.1447 |
| O=C(O)c1cc(S(=O)(=O)N2CCCCC2)c(Cl)cc1N1CCCCC1 [CBK263408] | 89.0288 |
| Cc1c(C(=O)Nc2cccc(-c3nc4ccccc4s3)c2)sc2nc[nH]c(=O)c12 [CBK285825] | 87.1219 |
| CN(C)CCN(C)c1nc(-c2ccc(C(C)(C)C)cc2)cn2ccnc12 [CBK066477] | 108.705 |
| CCC1CCCCN1C(=O)c1ccc(C)s1 (stereo not drawn) [CBK084526] | 101.489 |
| Cc1ccc2nsnc2c1NC(=O)COc1ccccc1[N+](=O)[O-] [CBK263779] | 96.8 |
| COCC1CCCN1C(=O)c1cnn2c(C)c(Cc3ccc(OC)cc3)c(C)nc12 (stereo not drawn) [CBK162190] | 93.8778 |
| N#Cc1ccsc1NC(=O)CSc1nc[nH]n1 [CBK267221] | 99.5107 |
| CC(NC(=O)c1nn(-c2ccc(F)cc2)c2c1CCCC2)c1ccc2c(c1)OCCO2 (stereo not drawn) [CBK296682] | 75.3788 |
| CCC(=O)NC(N(Cc1ccccc1)Cc1ccccc1)C(Cl)(Cl)Cl (stereo not drawn) [CBK261022] | 78.5325 |

| SMILES | % of control remaining |
| --- | --- |
| O=C(O)CCNS(=O)(=O)c1ccc(I)cc1 [CBK268968] | 96.2583 |
| COc1ccccc1-c1ccc(CC2(C(=O)NCC3CCCCC3)CCOCC2)cc1 [CBK286519] | 82.2324 |
| Cc1cc(-c2cnoc2C2CCCN(C(=O)c3cccs3)C2)on1 (stereo not drawn) [CBK284480] | 54.7233 |
| Cn1cc(CCNC(=O)NC2CCN(c3ncccn3)CC2)cn1 [CBK305612] | 41.8012 |
| N#CCCn1cc(C(=O)N2CCCCC2)c(-c2cc3ccccc3o2)n1 [CBK306206] | 55.4227 |
| Cc1ccc(-n2c3c(cc(C(=O)NCCCN4CCOCC4)c2=O)C(=O)CCC3)cc1 [CBK266094] | 131.421 |
| COc1cc(NC(=O)CCN2CCN(C)CC2)cc(OC)c1 [CBK264193] | 113.167 |
| Cc1cc(CNC(=O)N(C)C2CCN(C)C2)no1 (stereo not drawn) [CBK155992] | 94.5684 |
| COc1ccc([C@@]23CC[C@@H](NC(=O)Nc4cccc(Cl)c4)C[C@@H]2CN(C)C3)cc1OC [CBK081375T] | 84.9962 |
| CCc1nnc(NC(=O)c2cccc(F)c2)s1 [CBK273362] | 85.5274 |
| Nc1nc(N)nc(-c2ccc(-c3nc(N)nc(N)n3)cc2)n1 [CBK261494] | 91.1683 |
| Cc1sc2ncnc(NCCOCCO)c2c1C [CBK265907] | 124.249 |
| O=S(=O)(c1ccc(F)cc1)N1CCCC1c1cccc(Cc2ccc(F)cc2)n1 (stereo not drawn) [CBK286249] | 85.7894 |
| O=[N+]([O-])c1c(N2CCN(CCO)CC2)ccc2nonc12 [CBK264397] | 103.169 |
| O=C(CCc1ccc(O)c(O)c1)NNC(=S)Nc1ccccc1C(F)(F)F [CBK267104] | 123.277 |
| CC(=O)c1ccc(-c2cnc(N)c(N3CCN(C)CC3)n2)s1 [CBK063432] | 129.945 |
| Oc1cccnc1CCc1ccccc1 [CBK026334C] | 46.9376 |
| CCC(C)(C)c1ccc(S(=O)(=O)Nc2ccc3ncsc3c2)cc1 [CBK043490] | 70.4758 |
| Cc1ccc(S(=O)(=O)N(CC(=O)Nc2ccc3c(c2)OCCO3)Cc2ccccc2F)cc1 [CBK265157] | 81.3208 |
| Cc1cccc(CNCC2CCN(C(=O)OC(C)(C)C)CC2)n1 [CBK056713] | 72.4721 |
| Cn1c(Cc2nn(C)c(=O)c3ccccc23)nnc1SCC(=O)C(C)(C)C [CBK010985] | 34.3076 |

| SMILES | % of control remaining |
| --- | --- |
| Cc1ccc(OCC(=O)Nc2sc3c(c2C(N)=O)CCCCC3)c([N+](=O)[O-])c1 [CBK268148] | 116.987 |
| CC(C)N(C)C(=O)Cc1csc(N)n1 [CBK014608] | 36.0152 |
| C=C(C)CN1CCN(C(=O)C2Cc3cc(Cl)ccc3O2)CC1 (stereo not drawn) [CBK282639] | 128.935 |
| Cn1c(=O)c2c(ncn2Cc2ccc(C#N)cc2)n(C)c1=O [CBK134217] | 78.7545 |
| COc1ccccc1-c1nc2ccccn2c1CO [CBK173210] | 42.4275 |
| O=[N+]([O-])c1ccc(O)c(C(C#Cc2ccccc2)N2CCOCC2)c1 (stereo not drawn) [CBK262741] | 101.431 |
| O=S(=O)(Nc1cccc(Cl)c1)c1ccc(OC(F)(F)F)cc1 [CBK044769] | 66.9498 |
| COCCNC(=O)c1sc2ncn(CC(=O)Nc3ccccc3OC)c(=O)c2c1C [CBK071846] | 81.2387 |
| Cn1c(CSCc2ccccc2)nnc1SCC(=O)c1ccc(Br)cc1 [CBK266565] | 114.477 |
| Cc1cn2nc(N3CCN(S(=O)(=O)c4ccccc4[N+](=O)[O-])CC3)sc2n1 [CBK298288] | 80.1563 |
| O=C1C=C(c2ccc([N+](=O)[O-])cc2)Nc2nonc2N1 [CBK261487] | 95.606 |
| Cc1ccc(C2CCCN2C(=O)c2ccc(=O)n(CC(=O)Nc3ccc(F)cc3)c2)cc1C (stereo not drawn) [CBK286088] | 124.314 |
| Cc1ccc(C2(O)CCN(Cc3cn(C)nc3C)CC2)cc1 [CBK282753] | 117.669 |
| COCCNc1nccnc1-c1cnc(OC)nc1OC [CBK088558] | 83.3534 |
| Cc1ccc2[nH]c(C3CCCCN3C(=O)c3cscn3)nc2c1 (stereo not drawn) [CBK283999] | 70.5276 |
| Cc1ccc(S(=O)(=O)N=C2NCN(C)CN2)cc1 [CBK261972] | 94.0653 |
| CC(C)(C)OC(=O)N1CCC(Oc2cncc(Cl)n2)CC1 [CBK001762] | 78.3702 |
| CC(=O)N1c2ccccc2C(C)=CC1C1CCCC(=O)C1 (stereo not drawn) [CBK007219] | 83.3586 |
| Cc1ccc(NC(=O)Cc2cn(C)c3ccccc23)c(C)n1 [CBK200298] | 100.303 |
| CC(C)Nc1ncnc2scc(-c3cccs3)c12 [CBK017085] | 75.2349 |
| CC(C)(C)c1cc(CN(Cc2cc(C(C)(C)C)c(O)c(C(C)(C)C)c2)/N=C\c2ccccc2O)cc(C(C)(C)C)c1O [CBK261990] | 101.652 |

| SMILES | % of control remaining |
| --- | --- |
| CC(=O)OC(COc1cccc(Cl)c1)Cn1cnc2cc(C)c(C)cc21 (stereo not drawn) [CBK266152] | 81.671 |
| Cc1ncsc1CCS(=O)(=O)N1CCOCC1c1cccc(F)c1 (stereo not drawn) [CBK304254] | 57.4873 |
| CN1CCc2c(C#N)c(N)n(N)c(=S)c2C1 [CBK264055] | 110.726 |
| CC(=O)N1CCc2c(sc3nc(N)c(C(=O)NCCc4ccc(F)cc4)c(C(F)(F)F)c23)C1 [CBK269176] | 118.529 |
| COc1cc(OCc2ccccc2)ccc1CN1CCN(Cc2ccccc2)CC1 [CBK074766] | 84.4922 |
| CC1CNCCN1C(=O)c1cnn(-c2cccc(Cl)c2)c1 (stereo not drawn) [CBK304238] | 50.2602 |
| O=C(NCc1c(O)c(Cl)cc(Cl)c1Cl)c1ccccc1 [CBK260920] | 83.7662 |
| Cc1oc2ccccc2c1CN(CCN(C)C)Cc1ccncc1 [CBK283097] | 85.7572 |
| Cc1cc(NS(=O)(=O)c2cnn(-c3ccccc3)c2C)n(C)n1 [CBK067252] | 90.5425 |
| OCCN(Cc1cccnc1)Cc1cccn1Cc1ccccc1F [CBK282945] | 119.262 |
| COc1ccc(-c2nc3ccccc3o2)cc1NC(=O)C(C)Oc1ccc(Cl)cc1Cl (stereo not drawn) [CBK266787] | 63.492 |
| O=C(NCCCn1ccnc1)c1ccccc1C(=O)c1ccccc1 [CBK262954] | 98.9306 |
| O=C(NCc1ccccn1)c1nn[nH]c1Nc1cccc(Cl)c1 [CBK288030] | 62.7377 |
| COC(=O)c1c(NC(=O)C(=O)NCc2ccccn2)sc2c1CCC2 [CBK269431] | 86.4106 |
| O=C(Nc1ccsc1C(=O)O)c1ccccc1Cl [CBK152440] | 63.5358 |
| Cc1c(CN2CCCC(n3cnc4cc(F)ccc43)C2)cnn1C (stereo not drawn) [CBK284478] | 116.249 |
| NS(=O)(=O)c1ccc2nc(NC(=O)c3ccc(N4C(=O)CCC4=O)cc3)sc2c1 [CBK291192] | 55.3917 |
| N#Cc1ccccc1CSc1nc2ccc([N+](=O)[O-])cc2[nH]1 [CBK269589] | 87.9729 |

Reference: publication PMC12040169 (PLOS Biology, 2025)
